# Reference: PubChem BioAssay (NCATS)
# Values joined by “and” are separate entries in the source; they are usually repeats but may differ in a detail not shown here. Identical values can stand only once. The inconclusive results got no clear call from the source; some entries with a clear call stand among them for comparison. Potencies of inconclusive entries are doubtful fits and often do not repeat. Active and inactive are the calls of the source. Unless noted, calls follow the shape of the dose curve; as a rule, active = well fitted curve in the direction sought with a large enough effect; inconclusive = small, poorly fitted or top-dose-only effect, or another doubt; inactive = no such curve, though single readings can be large; an effect the other way counts as inactive or inconclusive.
# Assays:
# [1] = target: Calcium and integrin-binding protein 1 (Homo sapiens) (UniProt Q99828); test: Primary qHTS for Identification of Calcium Integrin Binding Protein 1 (CIB1) Competitor (AID 1508620);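 as to activity change, negative = inhibition: GST tagged CIB1 binding a fluorescein labelled alphaIIb integrin peptide tracer; top concentration of the series differs between compounds; % is scaled to controls: 0 for no effect and ±100 for the full control effect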
# In short: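 Fluorescence polarization competition: GST-tagged CIB1 (1 uM final) preincubated with compound 15 min at room temperature, then FITC-labelled alphaIIb peptide (100 nM final) added. After 15 min at room temperature, polarization read at Ex 480/Em 540.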
# [2] = Counterscreen qHTS for small molecule stabilizers of the endoplasmic reticulum resident proteome: GLuc-NoTag assay (AID 1508627);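 as to activity change, negative = inhibition: SH-SY5Y cells given compound then 100 nM thapsigargin to empty ER calcium; 0% = thapsigargin alone and -100% = DMSO vehicle control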
# In short: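 SH-SY5Y cells stably expressing constitutively secreted GLuc without SERCaMP tag, exposed to compound for 19 hr, then to 100 nM thapsigargin for 4 hr at 37C. Medium luciferase was read by coelenterazine luminescence without lysis.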
# [3] = Confirmatory qHTS for small molecule stabilizers of the endoplasmic reticulum resident proteome: Secreted ER Calcium Modulated Protein (SERCaMP) assay (AID 1508628); also: nearly all actives have a fitted effect of over 40% in size
# In short: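 SH-SY5Y cells stably expressing GLuc-SERCaMP, treated 16 h with compound (primary 1.53, 7.67, 38.3 uM; confirmation 11 concentrations, up to 76.6 uM), then 100 nM thapsigargin for 4 h. Secreted Gaussia luciferase in medium read by coelenterazine luminescence.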
# [4] = Cell Viability qHTS for small molecule stabilizers of the endoplasmic reticulum resident proteome (AID 1508629); conditions: cell viability counter-screen, 100 nM thapsigargin for final 4 h;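 also: compound exposure about 46 h in total before the viability read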;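 as to max response: human SH-SY5Y neuroblastoma cells carrying the GLuc-SERCaMP reporter; % is scaled to controls: 0 for no effect and ±100 for the full control effect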
# [5] = Primary qHTS for small molecule stabilizers of the endoplasmic reticulum resident proteome: Secreted ER Calcium Modulated Protein (SERCaMP) assay (AID 1508630); conditions: SH-SY5Y GLuc-SERCaMP (Gaussia luciferase released on ER calcium loss) secretion, thapsigargin, luminescence; activity change, negative = inhibition: at 38.4 µM (top of the series)
# In short: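 GLuc-SERCaMP-expressing SH-SY5Y cells, pretreated 16 h with compound, are challenged with thapsigargin to empty ER calcium stores; after 4 h, coelenterazine is added directly to the medium and luminescence is imaged.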
# [6] = A High-Content qHTS Against Drug Library for the Identification of Small Molecules that Inhibit DYT1 Early Onset Primary Dystonia-Associated Cell Pathology (AID 1645839; calls by dose curve)
# In short: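 Flp-In T-REx 293 cells with tetracycline-inducible EGFP-delE hTOR1A (WT EGFP-hTOR1A as reference), 800 cells/well; compound added with tetracycline, 48 h at 37 C. Fixed, permeabilized cells imaged; %pathology (punctate TorsinA) primary, cell count counterscreen.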
# [7] = target: Cytochrome P450 2C9 (Homo sapiens) (UniProt P11712); test: Cytochrome P450 family 2 subfamily C member 9 (CYP2C9) small molecule antagonists: luciferase biochemical (cell-free) qHTS assay (AID 1645842; active = well fitted curve in the direction sought with a large enough effect in the repeat runs; inconclusive = weak or mixed curves; inactive = no such curve, though single readings can be large; an effect the other way counts as inactive or inconclusive; also: nearly all actives have a fitted effect of over 55% in size; as to activity change, negative = inhibition: % is scaled to controls: 0 for no effect and ±100 for the full control effect)
# In short: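 Luminescence, after 20 min with luciferin detection reagent, reflected CYP2C9 turnover during a 1 h NADPH-driven reaction at 37C. Enzyme-substrate mix contained 0.4% bovine serum albumin and was preincubated with compound 10 min at room temperature.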
# [8] = target: Cytochrome P450 3A4 (Homo sapiens) (UniProt P08684); test: Cytochrome P450 family 3 subfamily A member 4 (CYP3A4) small molecule antagonists: luciferase qHTS assay (AID 1645841; active = well fitted curve in the direction sought with a large enough effect in the repeat runs; inconclusive = weak or mixed curves; inactive = no such curve, though single readings can be large; an effect the other way counts as inactive or inconclusive; also: nearly all actives have a fitted effect of over 45% in size)
# In short: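 P450-Glo CYP3A4 enzyme with proluciferin substrate preincubated 10 min with compound at room temperature, then NADPH regeneration 1 h. Luciferin detection reagent added for 20 min; luminescence recorded. Ketoconazole positive control.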
# [9] = target: Cytochrome P450 2D6 (Homo sapiens) (UniProt P10635); test: Cytochrome P450 family 2 subfamily D member 6 (CYP2D6) small molecule antagonists: luciferase biochemical (cell-free) qHTS assay (AID 1645840; active = well fitted curve in the direction sought with a large enough effect in the repeat runs; inconclusive = weak or mixed curves; inactive = no such curve, though single readings can be large; an effect the other way counts as inactive or inconclusive; also: nearly all actives have a fitted effect of over 55% in size; as to activity change, negative = inhibition: % is scaled to controls: 0 for no effect and ±100 for the full control effect)
# In short: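 P450-Glo luminescent screen: recombinant CYP2D6 enzyme–proluciferin substrate mix preincubated with compound 10 min at room temperature, then NADPH regeneration added for 1 h at room temperature. Detection reagent added for 20 min; luciferin light read as relative luminescence units.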
# [10] = Cytotoxicity counterscreen for inhibitors of SARS-CoV-2 cell entry (AID 1645845; calls by dose curve; also: nearly all actives have a fitted effect of over 50% in size); conditions: activity change, negative = cytotoxicity: at 57.1 µM (top of the series) unless noted
# In short: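 HEK293-ACE2 cells (Expi293F stably expressing human ACE2) seeded overnight, then compound for 1 h plus 48 h at 37C. Viability as ATP content by luminescence; normalized to wells with cells and media-only wells.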
# Potency is read from the fitted curve at half-maximal effect; tags tell the direction and shape of the fitted curve.
# UniProt P11712, sequence (P11712 whole entry, looked up): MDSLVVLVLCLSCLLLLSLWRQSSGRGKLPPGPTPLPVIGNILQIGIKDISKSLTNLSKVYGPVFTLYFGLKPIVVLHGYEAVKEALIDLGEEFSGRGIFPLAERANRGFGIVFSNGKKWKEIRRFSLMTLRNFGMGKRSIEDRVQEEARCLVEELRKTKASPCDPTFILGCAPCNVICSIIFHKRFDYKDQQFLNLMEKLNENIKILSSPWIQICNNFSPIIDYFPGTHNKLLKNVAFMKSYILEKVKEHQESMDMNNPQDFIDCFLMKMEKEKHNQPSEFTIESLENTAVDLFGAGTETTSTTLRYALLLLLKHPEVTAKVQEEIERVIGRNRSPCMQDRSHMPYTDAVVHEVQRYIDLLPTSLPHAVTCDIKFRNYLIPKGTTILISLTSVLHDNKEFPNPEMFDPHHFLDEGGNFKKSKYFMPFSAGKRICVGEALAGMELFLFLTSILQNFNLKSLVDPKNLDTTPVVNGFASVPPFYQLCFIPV
# UniProt P08684, sequence (P08684 whole entry, looked up): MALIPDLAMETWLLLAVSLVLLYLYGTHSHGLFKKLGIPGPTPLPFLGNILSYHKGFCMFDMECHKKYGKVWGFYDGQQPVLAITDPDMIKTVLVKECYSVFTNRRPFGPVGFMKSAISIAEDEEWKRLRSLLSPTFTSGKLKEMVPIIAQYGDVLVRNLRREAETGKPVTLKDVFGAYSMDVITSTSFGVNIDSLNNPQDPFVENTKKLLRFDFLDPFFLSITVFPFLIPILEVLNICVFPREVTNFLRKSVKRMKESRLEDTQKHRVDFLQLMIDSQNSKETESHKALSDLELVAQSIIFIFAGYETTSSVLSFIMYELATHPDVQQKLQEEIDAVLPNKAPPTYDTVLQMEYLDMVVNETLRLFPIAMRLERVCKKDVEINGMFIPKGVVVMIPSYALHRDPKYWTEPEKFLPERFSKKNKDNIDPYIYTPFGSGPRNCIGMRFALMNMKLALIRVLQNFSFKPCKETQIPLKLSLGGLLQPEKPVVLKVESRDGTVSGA
# UniProt Q99828, sequence (Q99828 whole entry, looked up): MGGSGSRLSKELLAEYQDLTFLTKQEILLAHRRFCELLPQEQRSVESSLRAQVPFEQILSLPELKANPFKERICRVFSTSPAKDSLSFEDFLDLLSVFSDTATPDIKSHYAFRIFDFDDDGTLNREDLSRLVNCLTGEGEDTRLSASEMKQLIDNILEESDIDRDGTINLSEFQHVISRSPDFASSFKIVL
# UniProt P10635, sequence (P10635 whole entry, looked up): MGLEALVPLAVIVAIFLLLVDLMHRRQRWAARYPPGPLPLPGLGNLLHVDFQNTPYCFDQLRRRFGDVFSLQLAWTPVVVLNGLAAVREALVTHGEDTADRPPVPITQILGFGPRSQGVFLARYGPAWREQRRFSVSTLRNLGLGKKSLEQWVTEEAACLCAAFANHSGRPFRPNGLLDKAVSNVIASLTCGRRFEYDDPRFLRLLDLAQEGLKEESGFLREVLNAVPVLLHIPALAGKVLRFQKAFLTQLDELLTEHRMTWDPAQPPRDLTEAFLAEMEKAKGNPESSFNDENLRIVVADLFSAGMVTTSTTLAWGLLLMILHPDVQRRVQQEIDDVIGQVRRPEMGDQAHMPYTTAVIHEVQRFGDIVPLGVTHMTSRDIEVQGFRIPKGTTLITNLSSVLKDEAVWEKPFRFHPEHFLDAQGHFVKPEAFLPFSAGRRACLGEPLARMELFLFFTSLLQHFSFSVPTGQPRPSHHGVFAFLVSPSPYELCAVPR
smiles,measurement,setting,value
COC[C@H]1OC(=O)c2coc3c2[C@@]1(C)C1=C(C3=O)C2CCC(=O)[C@@]2(C)C[C@H]1OC(C)=O (stereo partly drawn),Potency,[1],"inconclusive: 50.1 µM [inhibitor, partial curve] and inconclusive: 8.57 µM [inhibitor, partial curve]"
CC1=CC(=O)[C@@H](O)[C@@]2(C)C1C[C@H]1OC(=O)[C@H](O)[C@@]3(O)[C@@H](C)[C@@H](O)[C@H](O)C2[C@@]13C (stereo partly drawn),Potency,[1],inactive
Nc1c(Cl)c(Cl)c(Cl)c(Cl)c1Cl,Potency,[2],inactive
same,Potency,[3],inactive
same,max response,[4],inactive: 1.55%
same,Potency,[5],"inconclusive: 28.2 µM [inhibitor, partial curve, poor fit]"
same,Potency,[6],inactive
CN1CCN(c2ccc([N+](=O)[O-])c3no[n+]([O-])c23)CC1,Potency,[2],inactive
same,Potency,[3],inactive
same,Potency,[4],"inconclusive: 0.1 µM [rising, full curve]"
same,Potency,[5],"inconclusive: 18.8 µM [inhibitor, partial curve, poor fit]"
CC[n+]1c(-c2ccccc2)c2cc(N)ccc2c2ccc(N)cc21,Potency,[1],"inconclusive: 56.2 µM [inhibitor, partial curve, poor fit]"
same,Potency,[2],active: 20 µM
same,Potency,[3],"inconclusive: 70.8 µM [inhibitor, single point]"
same,Potency,[4],active: 3.16 µM
same,Potency,[5],"inconclusive: 5.62 µM [inhibitor, partial curve, poor fit]"
same,Potency,[7],"inconclusive: 27.5 µM [inhibitor, single point]"
c1ccc(CCCN2CCN(CCOC(c3ccccc3)c3ccccc3)CC2)cc1,Potency,[2],"inconclusive: 12.6 µM [inhibitor, partial curve, poor fit]"
same,Potency,[3],"inconclusive: 28.2 µM [inhibitor, full curve, poor fit]"
same,Potency,[4],"inconclusive: 15.8 µM [cytotoxic, partial curve]"
same,Potency,[5],"inconclusive: 28.2 µM [inhibitor, single point]"
O=C1NCN(c2ccccc2)C12CCN(CCCOc1ccc(F)cc1)CC2,Potency,[2],"active: 8.91 µM and inconclusive: 44.7 µM [inhibitor, single point]"
same,Potency,[3],active: 2.51 µM and active: 3.16 µM
same,Potency,[4],"inconclusive: 25.1 µM [cytotoxic, partial curve, poor fit]"
same,Potency,[6],"inconclusive: 11.2 µM [inhibitor, partial curve, poor fit]"
NC(=O)OCCCc1ccccc1,Potency,[2],inactive
same,Potency,[3],inactive
same,max response,[4],inactive: 1.15%
same,Potency,[8],inactive
same,Potency,[7],inactive
Oc1cccc2cccnc12,Potency,[1],"inconclusive: 126 µM [inhibitor, partial curve]"
same,Potency,[2],"inconclusive: 126 µM [inhibitor, single point]"
same,Potency,[3],"inconclusive: 4.47 µM [inhibitor, full curve]"
same,Potency,[5],"inconclusive: 10 µM [inhibitor, partial curve, poor fit]"
same,Potency,[9],inactive
same,Potency,[10],"inconclusive: 8.91 µM [cytotoxic, full curve, poor fit]"
COc1nn(CSP(=S)(OC)OC)c(=O)s1,Potency,[1],"inconclusive: 35.5 µM [inhibitor, full curve]"
same,Potency,[6],"inconclusive: 56.2 µM [inhibitor, single point]"
Nc1ccc(N=Nc2ccccc2)cc1,Potency,[2],inactive
same,Potency,[3],active: 44.7 µM
same,max response,[4],inactive: 1.98%
same,Potency,[5],"inconclusive: 3.98 µM [inhibitor, full curve]"
same,Potency,[6],"inconclusive: 5.01 µM [inhibitor, full curve]"
CCN(CC)C(=O)[C@@H]1C=C2c3cccc4[nH]cc(c34)C[C@H]2N(C)C1,Potency,[1],active: 63.1 µM
same,Potency,[6],"inconclusive: 100 µM [inhibitor, partial curve, poor fit]"
same,Potency,[9],"inconclusive: 0.93 µM [inhibitor, full curve, poor fit]"
same,Potency,[8],"inconclusive: 82.8 µM [falling, partial curve, poor fit]"
same,Potency,[7],"inconclusive: 82.8 µM [inhibitor, partial curve]"
O=[N+]([O-])c1c2ccccc2cc2ccccc12,Potency,[2],inactive
same,max response,[4],inactive: -4.03%
same,Potency,[5],"inconclusive: 3.16 µM [inhibitor, full curve, poor fit]"
same,Potency,[6],"inconclusive: 31.6 µM [inhibitor, partial curve]"
NC1(c2ccccc2)CCCCC1,Potency,[2],inactive
same,Potency,[4],"inconclusive: 0.355 µM [rising, full curve]"
same,Potency,[5],"inconclusive: 50.1 µM [inhibitor, partial curve, poor fit]"
O=c1[nH]c2ccccc2n1CCCN1CCC(n2c(=O)[nH]c3cc(Cl)ccc32)CC1,Potency,[2],"inconclusive: 39.8 µM [inhibitor, partial curve, poor fit] and inconclusive: 39.8 µM [inhibitor, partial curve]"
same,Potency,[3],"inconclusive: 20 µM [inhibitor, partial curve] and inconclusive: 31.6 µM [inhibitor, partial curve]"
same,Potency,[6],"inconclusive: 35.5 µM [inhibitor, single point]"
same,Potency,[10],inactive
CN1C2CCC(C)(C)C1CC(OC(=O)C(O)(c1cccs1)c1cccs1)C2 (stereo not drawn),Potency,[2],inactive
same,Potency,[3],"inconclusive: 39.8 µM [inhibitor, single point]"
same,max response,[4],inactive: -12.1%
same,Potency,[5],"inconclusive: 11.2 µM [inhibitor, partial curve, poor fit]"
same,Potency,[6],"inconclusive: 20 µM [inhibitor, single point]"
same,Potency,[8],"inconclusive: 1.38 µM [falling, full curve]"
same,Potency,[7],inactive
CN(C)CCc1c[nH]c2ccc(O)cc12,Potency,[1],"inconclusive: 112 µM [inhibitor, partial curve, poor fit]"
same,Potency,[5],"inconclusive: 31.6 µM [inhibitor, single point]"
same,Potency,[9],active: 31 µM
same,Potency,[8],"inconclusive: 21.9 µM [falling, partial curve, poor fit]"
CC[C@H](O)C(C[C@H](C)N(C)C)(c1ccccc1)c1ccccc1,Potency,[2],"inconclusive: 79.4 µM [inhibitor, partial curve, poor fit]"
same,Potency,[4],"inconclusive: 0.224 µM [rising, full curve, poor fit]"
same,Potency,[5],"inconclusive: 8.91 µM [inhibitor, full curve, poor fit]"
same,Potency,[6],"inconclusive: 39.8 µM [inhibitor, single point]"
same,Potency,[9],"inconclusive: 0.115 µM [inhibitor, full curve, poor fit]"
same,Potency,[7],"inconclusive: 102 µM [inhibitor, single point]"
Cc1c(Cl)c(=O)oc2cc(OP(=O)(OCCCl)OCCCl)ccc12,Potency,[2],inactive
same,Potency,[3],inactive
same,Potency,[4],"inconclusive: 0.0794 µM [rising, full curve]"
same,Potency,[6],"inconclusive: 22.4 µM [inhibitor, single point]"
same,Potency,[9],active: 1.55 µM
same,Potency,[10],inactive
O=C1OC(c2ccc(O)c(S(=O)(=O)O)c2)(c2ccc(O)c(S(=O)(=O)O)c2)c2c(Br)c(Br)c(Br)c(Br)c21,Potency,[1],"inconclusive: 15.8 µM [inhibitor, full curve, poor fit]"
same,Potency,[9],"inconclusive: 38.9 µM [inhibitor, single point]"
COC[C@@H](NC(C)=O)C(=O)NCc1ccccc1,Potency,[2],"inconclusive: 39.8 µM [inhibitor, single point]"
same,Potency,[3],inactive
same,Potency,[4],"inconclusive: 0.178 µM [rising, full curve, poor fit]"
same,Potency,[10],inactive
C[C@@H]1[C@H](O)[C@@H](C)C=CC=CCCC=CC=CC=CC=C[C@H](O[C@H]2O[C@@H](C)[C@H](O)[C@@H](N)[C@@H]2O)CC2O[C@](O)(C[C@@H](O)[C@H](O)CC[C@@H](O)C[C@@H](O)C[C@@H](O)CC(=O)O[C@H]1C)C[C@H](O)[C@H]2C(=O)O,Potency,[1],inactive
COC(=O)C12C(=O)C(C)(O)C(=O)C1(C)C(C)=CC1C34CCC(OC3=O)C(C)(CO)C4CCC12C (stereo not drawn),Potency,[1],"inconclusive: 28.2 µM [inhibitor, partial curve]"
Fc1ccc(C(OCCN2CCN(CCCc3ccccc3)CC2)c2ccc(F)cc2)cc1,Potency,[2],active: 44.7 µM
same,Potency,[3],"inconclusive: 25.1 µM [inhibitor, partial curve]"
same,Potency,[4],"inconclusive: 12.6 µM [cytotoxic, partial curve]"
same,Potency,[5],"inconclusive: 8.91 µM [inhibitor, partial curve, poor fit]"
same,Potency,[6],"inconclusive: 25.1 µM [inhibitor, single point]"
same,Potency,[10],"inconclusive: 12.6 µM [cytotoxic, partial curve, poor fit]"
CC(C)CC(N(C)C)C1(c2ccc(Cl)cc2)CCC1 (stereo not drawn),Potency,[2],inactive
same,Potency,[3],inactive
same,max response,[4],inactive: 6.57%
same,Potency,[5],"inconclusive: 10 µM [inhibitor, partial curve, poor fit]"
CNCC(=O)c1ccc(O)c(O)c1,Potency,[2],"inconclusive: 1.41 µM [inhibitor, full curve, poor fit]"
same,Potency,[3],inactive
same,Potency,[4],"inconclusive: 0.282 µM [rising, full curve]"
same,Potency,[6],inactive
same,Potency,[7],inactive
COc1ccc2c(c[n+](C)c3c4cc5c(cc4ccc23)OCO5)c1OC,Potency,[1],"inconclusive: 24.1 µM [inhibitor, partial curve]"
same,Potency,[10],"inconclusive: 10 µM [cytotoxic, full curve, poor fit]"
CC(C)[C@]12O[C@@H]1[C@@H]1O[C@]13[C@]1(O[C@H]1C[C@@H]1C4=C(CC[C@@]13C)C(=O)OC4)[C@H]2O,Potency,[1],inactive
NNc1ccccc1,Potency,[2],inactive
same,Potency,[3],inactive
same,max response,[4],inactive: -1.1%
same,Potency,[6],"inconclusive: 2 µM [inhibitor, full curve]"
same,Potency,[9],"inconclusive: 43.6 µM [inhibitor, single point]"
